Data published in article PMC10726135.
This is one part of the list. At the low end of the ranking the order means little. The protein was read in a cell extract, so binding may be indirect.

molecular target: T1, HNF4alpha8 (COS-7 nuclear extract) (UniProt P41235-5); experiment: protein-binding microarray; details: COS-7 nuclear extract on double-stranded Agilent 4x180k PBM; binding buffer, salt, pH and temperature not given; high values mean tight binding; double strand, one strand shown; sequences stand for … in …GCCTAGGGAGATTAGAGTATCGGTCGA
T1 sequence: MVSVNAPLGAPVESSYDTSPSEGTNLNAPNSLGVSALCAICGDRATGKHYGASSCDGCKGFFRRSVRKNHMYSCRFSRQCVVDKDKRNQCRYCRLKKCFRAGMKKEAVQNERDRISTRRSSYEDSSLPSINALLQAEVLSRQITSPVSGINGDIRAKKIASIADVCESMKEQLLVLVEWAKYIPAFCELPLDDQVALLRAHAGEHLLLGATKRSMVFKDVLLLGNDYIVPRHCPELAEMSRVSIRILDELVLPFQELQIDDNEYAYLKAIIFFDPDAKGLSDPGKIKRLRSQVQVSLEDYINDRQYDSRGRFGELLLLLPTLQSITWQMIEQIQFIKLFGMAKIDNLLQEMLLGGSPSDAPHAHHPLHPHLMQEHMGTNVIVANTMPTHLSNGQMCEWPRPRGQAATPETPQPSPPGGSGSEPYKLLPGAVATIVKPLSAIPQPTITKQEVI

Sequence	binding signal (log2 normalized intensity)
AGGCCGCGCCCGCCCGCGCCGGCCTCGGTC	-1.26
AAGATAAGGACTGTTGGACCTCGAACTCCA	5.09
CTGGAAGCTCTTCTGTGCCTCCCAAATGCA	1.92
TGCACTGTTTGCATAAAGTTAAACTTTAAA	1.29
GCCCGAAAGACGCGGAGCGGGGGACCGAGA	-1.28
TGGATAAAGTCCATATTCTTTGTTTGGATG	2.28
GCCAAAGGTAATAGGAAAAGGGAGTTTTCT	-1.27
AGCCTCTCTGCAAACATTTATTTTGTGTGC	1.44
AGGTGACAGCCTTTTCTTATCAGGCTCATT	-1.02
ATACAGACACACCTAGGGAGTTAATCACAG	-1.16
CAGTTTTCCTAAGGGGCTTTTATTGGCTCC	0.128
TCAACATTGATGGGGCAGGGAAATATGTTC	1.02
AAAATTAAGGTTCAAAGGGAAAAAATAATC	-0.034
AGGAACTTGTCTAAAAACATTGTGGAGCTC	0.736
CATACAATGAATATTCAGACGCATGACCTC	3.74
GTACTTTCTTTTGGCTCTCTCTCTTGGTTC	1.52
AAAAGCAAACCGAGATCAAGGGACAGAGAT	-1.31
TAACGGTGAGGGAGGAGACTTTGACCTCTG	7.45
CTGGATGACCTTTGTCCTGGCACAACTGGA	6.78
ATTAGCTGAACATGGTGACACACACCTCCA	-1.37
TAAGGTTGTACTTTGGAGTTTACTTTAGAT	3.58
CAAATAACATTCCTAACATTCTTCCTCACA	-0.982
TTCCCTATCTAGCCACTTTCTTTGTCTGTG	0.864
TGTGTGTGTGTGTGTATGCCATGCTAATTG	2.09

Sequence	binding signal (log2 normalized intensity)
TAGCATGCTCTCTTGTCAAGACCGATTGTG	0.128
AAAATGGGTACAGACAATAGGAAGAGTGAG	-1.38
GGTACCATCTGCCACTCATAGAACTGTCGC	-1.34
TTTTGATGGTGGAGGGTCTTGCTTTGATGT	1.05
CTCTTGAATTGGAAGGCAAAGTTCAACCCT	4.17
AACCCAGTGCAATGCCTAAACCAGGATCCA	-1.42
TTAGTTTCCTTATCTGTAAAATGGACATAG	1.38
AAGGTTTCCATCAAGCCTTTGACTCGAATG	-1.31
AAAAGATAAGGCGTAGTTCAGAGAAAACGA	-1.34
ACTTCTCCTCTTATCTTCAGGTTTGCTAAT	1.72
GGGTTGGAGTCCAGAGTTCAGGTAGAGGGA	2.42
ACACAGTACTTTGTACATGGGAATAGACAT	0.975
CGAGCGTCCAAGCTCTTTCCATTTTTGCTC	-1.06
GGGTCAGTTTATCTAAGATTCCCCCTACCC	4
TGGACTCTGGGATCTCAGGGTGGACTTTAA	6.54
CAAAATAGACAAACAGCAATAGCAAGACTG	-1.3
ATGGAGGTAGGAGTATTTGGGTATGTGCCT	0.813
TTTCAAAGCTCCAGTTCCAGGGATGTCTTT	0.174
GTAAAATGAGCAAACAGAACTGTTAACTTT	-0.875
CTCTAATCTGGGACAAGGGGGAGGAGAGTA	-1.28
AATTACCCAACAGACTTTCCCCCTATTTCC	3.37
GCAGTGGTTTGCAGTTGGAAAGCTGAGTTT	0.629
TCCTCTTCCCTACCCCCTGGGAGTAACCTG	3.13
GCTTTTCTTTCTCAAGCCAGACTGGTTTTT	0.38

Sequence	binding signal (log2 normalized intensity)
AGCCACTTTCTTTGTCTGTGTAGACTCATC	1.15
ACAGAGCCTGGTGTTTACTGGAGCCGAGTC	-0.000378
TGAGCCATCCTGAACAAATGTACTGGATAT	-0.391
GCACTTTGCACCCTATGTGTTTCTTCTGCT	4.43
GTGTGGGGCAAATCTGAGGTCAAAGCTGTC	1.95
GGGAGCCCTGGGGTAATAAATAAAGCCCTG	-1.43
GACTTTTCCAAGCTCTAGAACGCTGACTCC	-1.26
GCACAGATCATATGGCCCACAAAGCCTAAA	-1.35
GCCTGTCACCCAACCTCACCTAACCACATT	1.21
TAAGGAAGATAATGGGTCCGAAGGTCAGCT	7.16
ACTTTGACCTTGGCACTGAAGAATGTCTAA	2.09
AAACCAAATCACAATTTTCAAGAACAAACA	-1.44
CAAAGGGTCAAGTTCAGATCCTGGCCATGC	1.36
CCTGGGAGTAACCTGCTTGTTTTCCCAACA	-1.16
CTGGGGCAAAGGTTTCCTAAACAGTTACCG	1.59
TGACCTTGGGCCAGTCGCTTAACCTCTTGA	2.33
GTTAAACAGCAACTCAGGCAACAATGCCTT	-1.44
AATTTTTTTTTCTTATCTCACTGGATGTGT	1.85
ATGGCTTATGCATGTTTATGTGAATTCCTG	1.12
GCCGACTTACAGGACAAAAGTAAATATGGT	-0.745
ATTTTGTCACCTACATGTGAGAGAGGCTTA	-1.38
CCCAGTATGGTCTCAGTAATGACATGCAGT	0.868
TTTCACTGCCTATCTCCTATGAGCCAAACA	-1.44
TTAGCCAGGATCAGATTTGATAGCTGGGCT	-1.26
